The other results are listed elsewhere or left out.
Key:
Experiment in all cases: glycan array binding signal (z-score within array); higher = stronger binding
Conditions in all cases: glycan notation: IUPAC condensed, linker removed
[1] = biological target: Neu5Ac(a2-3)Gal(b1-3)GlcNAc
How it was run: (§1)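 From the Consortium for Functional Glycomics database, 3228 arrays were curated, keeping only those whose protein sequence was available. Binding is given as a within-array Z-score averaged across arrays sharing a protein sequence and across linkers. Negative Z-scores can be read as non-binding.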

[2] = biological target: Neu5Ac(a2-3)Gal(b1-3)GlcNAc(b1-3)Gal(b1-4)GlcNAc
How it was run: as §1

[3] = biological target: Neu5Ac(a2-3)Gal(b1-3)GlcNAc6S
How it was run: as §1

[4] = biological target: Neu5Ac(a2-3)Gal(b1-3)[Fuc(a1-4)]GlcNAc
How it was run: as §1

[5] = biological target: Neu5Ac(a2-3)Gal(b1-3)[Fuc(a1-4)]GlcNAc(b1-3)Gal(b1-4)[Fuc(a1-3)]GlcNAc
How it was run: as §1

[6] = biological target: Neu5Ac(a2-3)Gal(b1-3)[Neu5Ac(a2-3)Gal(b1-4)]GlcNAc
How it was run: as §1

[7] = biological target: Neu5Ac(a2-3)Gal(b1-3)[Neu5Ac(a2-6)]GalNAc
How it was run: as §1

Neu5Ac(a2-3)Gal(b1-4)Glc = biological target: Neu5Ac(a2-3)Gal(b1-4)Glc
How it was run: as §1

[8] = biological target: Neu5Ac(a2-3)Gal(b1-4)GlcNAc
How it was run: as §1

[9] = biological target: Neu5Ac(a2-3)Gal(b1-4)GlcNAc(b1-3)Gal(b1-4)GlcNAc
How it was run: as §1

[10] = biological target: Neu5Ac(a2-3)Gal(b1-4)GlcNAc(b1-3)Gal(b1-4)GlcNAc(b1-3)Gal(b1-4)GlcNAc
How it was run: as §1

[11] = biological target: Neu5Ac(a2-3)Gal(b1-4)GlcNAc(b1-3)Gal(b1-4)[Fuc(a1-3)]GlcNAc
How it was run: as §1

[12] = biological target: Neu5Ac(a2-3)Gal(b1-4)GlcNAc6S
How it was run: as §1

[13] = biological target: Neu5Ac(a2-3)Gal(b1-4)[Fuc(a1-3)]GlcNAc
How it was run: as §1

[14] = biological target: Neu5Ac(a2-3)Gal(b1-4)[Fuc(a1-3)]GlcNAc(b1-3)Gal
How it was run: as §1

[15] = biological target: Neu5Ac(a2-3)Gal(b1-4)[Fuc(a1-3)]GlcNAc(b1-3)Gal(b1-4)GlcNAc
How it was run: as §1

[16] = biological target: Neu5Ac(a2-3)Gal(b1-4)[Fuc(a1-3)]GlcNAc(b1-3)Gal(b1-4)[Fuc(a1-3)]GlcNAc(b1-3)Gal(b1-4)[Fuc(a1-3)]GlcNAc
How it was run: as §1

[17] = biological target: Neu5Ac(a2-3)Gal(b1-4)[Fuc(a1-3)]GlcNAc6S
How it was run: as §1

[18] = biological target: Neu5Ac(a2-3)Gal6S(b1-4)GlcNAc
How it was run: as §1

[19] = biological target: Neu5Ac(a2-3)Gal6S(b1-4)[Fuc(a1-3)]GlcNAc
How it was run: as §1

Neu5Ac(a2-3)GalNAc = biological target: Neu5Ac(a2-3)GalNAc
How it was run: as §1

[20] = biological target: Neu5Ac(a2-3)GalNAc(b1-4)GlcNAc
How it was run: as §1

[21] = biological target: Neu5Ac(a2-3)[GalNAc(b1-4)]Gal(b1-4)Glc
How it was run: as §1

[22] = biological target: Neu5Ac(a2-3)[GalNAc(b1-4)]Gal(b1-4)GlcNAc
How it was run: as §1

[23] = biological target: Neu5Ac(a2-3)[Neu5Ac(a2-6)]GalNAc
How it was run: as §1

[24] = biological target: Neu5Ac(a2-6)Gal(b1-4)GlcNAc
How it was run: as §1

[25] = biological target: Neu5Ac(a2-6)Gal(b1-4)GlcNAc(b1-2)Man(a1-3)[Neu5Ac(a2-6)Gal(b1-4)GlcNAc(b1-2)Man(a1-6)]Man(b1-4)GlcNAc(b1-4)GlcNAc
How it was run: as §1

[26] = biological target: Neu5Ac(a2-6)Gal(b1-4)GlcNAc(b1-3)Gal(b1-4)GlcNAc
How it was run: as §1

[27] = biological target: Neu5Ac(a2-6)Gal(b1-4)GlcNAc(b1-3)Gal(b1-4)[Fuc(a1-3)]GlcNAc(b1-3)Gal(b1-4)[Fuc(a1-3)]GlcNAc
How it was run: as §1

[28] = biological target: Neu5Ac(a2-6)Gal(b1-4)GlcNAc6S
How it was run: as §1

Neu5Ac(a2-6)GalNAc = biological target: Neu5Ac(a2-6)GalNAc
How it was run: as §1

[29] = biological target: Neu5Ac(a2-6)GalNAc(b1-4)GlcNAc
How it was run: as §1

Neu5Ac(a2-8)Neu5Ac = biological target: Neu5Ac(a2-8)Neu5Ac
How it was run: as §1

[30] = biological target: Neu5Ac(a2-8)Neu5Ac(a2-3)Gal(b1-4)Glc
How it was run: as §1

[31] = biological target: Neu5Ac(a2-8)Neu5Ac(a2-3)[GalNAc(b1-4)]Gal(b1-4)Glc
How it was run: as §1

[32] = biological target: Neu5Ac(a2-8)Neu5Ac(a2-8)Neu5Ac
How it was run: as §1

[33] = biological target: Neu5Ac(a2-8)Neu5Ac(a2-8)Neu5Ac(a2-3)Gal(b1-4)Glc
How it was run: as §1

[34] = biological target: Neu5Ac(a2-8)Neu5Ac(a2-8)Neu5Ac(a2-3)[GalNAc(b1-4)]Gal(b1-4)Glc
How it was run: as §1

B1: Dectin-1 CTLD (Mus musculus), Q6QLQ4 (protein)
chain: MKYHSHIENLDEDGYTQLDFSTQDIHKRPRGSEKGSRAPSSPWRPIAVGLGILCFVVVVVAAVLGALAFWRHNSGRNPEEKDNFLSRNKENHKPTESSLDEKVAPSKASQTTGGFSQSCLPNWIMHGKSCYLFSFSGNSWYGSKRHCSQLGAHLLKIDNSKEFEFIESQTSSHRINAFWIGLSRNQSEGPWFWEDGSAFFPNSFQVRNTVPQESLLHNCVWIHGSEVYNQICNTSSYSICEKEL
glycan array binding signal (z-score) [1]: -0.294
glycan array binding signal (z-score) [2]: -0.258
glycan array binding signal (z-score) [3]: 1.26
glycan array binding signal (z-score) [4]: 0.4
glycan array binding signal (z-score) [5]: 0.521
glycan array binding signal (z-score) [6]: -0.124
glycan array binding signal (z-score) [7]: -0.324
glycan array binding signal (z-score) (Neu5Ac(a2-3)Gal(b1-4)Glc): -0.087
glycan array binding signal (z-score) [8]: 0.569
glycan array binding signal (z-score) [9]: 0.256
glycan array binding signal (z-score) [10]: -0.006
glycan array binding signal (z-score) [11]: -0.247
glycan array binding signal (z-score) [12]: 0.103
glycan array binding signal (z-score) [13]: -0.225
glycan array binding signal (z-score) [14]: 0.033
glycan array binding signal (z-score) [15]: -0.03
glycan array binding signal (z-score) [16]: 7.53
glycan array binding signal (z-score) [17]: -0.334
glycan array binding signal (z-score) [18]: -0.245
glycan array binding signal (z-score) [19]: -0.108
glycan array binding signal (z-score) (Neu5Ac(a2-3)GalNAc): 1.19
glycan array binding signal (z-score) [20]: -0.286
glycan array binding signal (z-score) [21]: -0.314
glycan array binding signal (z-score) [22]: -0.074
glycan array binding signal (z-score) [23]: -0.211
glycan array binding signal (z-score) [24]: -0.081
glycan array binding signal (z-score) [25]: -0.037
glycan array binding signal (z-score) [26]: 0.476
glycan array binding signal (z-score) [27]: -0.287
glycan array binding signal (z-score) [28]: -0.16
glycan array binding signal (z-score) (Neu5Ac(a2-6)GalNAc): 0.06
glycan array binding signal (z-score) [29]: 0.522
glycan array binding signal (z-score) (Neu5Ac(a2-8)Neu5Ac): -0.128
glycan array binding signal (z-score) [30]: -0.19
glycan array binding signal (z-score) [31]: -0.03
glycan array binding signal (z-score) [32]: 5.28
glycan array binding signal (z-score) [33]: 0.086
glycan array binding signal (z-score) [34]: 0.148

From the supplement of paper PMC8728848
